Test results: PubChem BioAssay AID1346428 (National Center for Advancing Translational Sciences (NCATS), 2018)
About 1,200 (2.5%) of roughly 48,000 compounds were called active. Another 2% or so got no clear call; they are omitted.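 How the source made its calls: active means activation of at least 60% and not above a set upper limit (about 1 call in 100 departs from these limits); inconclusive means activation of 40% to 60%, or above that upper limit; inactive means activation under 40%.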 The list shows a part of the results.

Biological target: Probable G-protein coupled receptor 32 (Homo sapiens) (UniProt O75388)
UniProt O75388, sequence (O75388 whole entry, looked up): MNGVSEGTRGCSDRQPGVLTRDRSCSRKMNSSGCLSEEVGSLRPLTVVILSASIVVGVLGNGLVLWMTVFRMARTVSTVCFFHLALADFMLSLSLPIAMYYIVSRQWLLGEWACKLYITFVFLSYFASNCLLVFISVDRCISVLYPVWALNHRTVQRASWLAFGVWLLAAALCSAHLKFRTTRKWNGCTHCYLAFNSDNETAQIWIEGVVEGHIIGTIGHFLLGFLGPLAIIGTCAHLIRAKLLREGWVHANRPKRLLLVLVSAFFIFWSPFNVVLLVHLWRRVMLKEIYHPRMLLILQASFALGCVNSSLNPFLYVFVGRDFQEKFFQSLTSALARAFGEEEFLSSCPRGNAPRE
Test: qHTS for Agonists of Human Resolvin D1 Receptor DRV1; further: 0% is about no effect
Conditions: CHO-K1 GPR32 beta-arrestin PathHunter luminescence, 90 min; at 76.9 µM; hits give high values; zero percent set by DMSO-only wells
Summary of the method: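 Agonism was scored as beta-arrestin recruitment to ProLink-fused GPR32 in stably transfected CHO-K1 cells, giving a chemiluminescent beta-Gal signal; compounds were incubated 90 min at 37 °C.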

SMILES	activation
CC1CCc2nn(CC(=O)Nc3cccc(C(F)(F)F)c3)c(=O)cc2C1 (centres undefined)	inactive: -5.45%
COc1cc(NC(=O)Cn2c(=O)n(C(C)C)c(=O)c3oc4ccccc4c32)cc(OC)c1	inactive: -12.7%
O=C(NCc1ccccc1)C1CCC(CNS(=O)(=O)c2ccc(Br)s2)CC1 (centres undefined)	inactive: 35.8%
O=C(Nc1cccnc1Cl)c1cc(-c2ccc(Cl)cc2)on1	inactive: -1.7%
CC1CCN(S(=O)(=O)c2cc(C(=O)NCc3ccc(F)cc3)n(C)c2)CC1	inactive: 22.2%
COc1cccc(COC(=O)c2ccc(-c3nnn(Cc4ccccc4)n3)cc2)c1	inactive: -10.5%
Cc1ccccc1C(=O)Nc1nnc(SCc2cc(=O)c3c(C)ccc(C)c3[nH]2)s1	inactive: 14.4%
CC(C)c1ccc(C(=O)Nc2cccc3cccnc23)cc1	inactive: 20.5%
COc1ccc(CN(C(=O)Nc2ccc(C)c(F)c2)C2CCN(C(C)=O)CC2)cc1	inactive: -11.6%
O=C1C(c2ccc(F)cc2)N(CCc2ccccc2)C(=O)CN1C1CCCCC1 (centres undefined)	inactive: 15%
CNC(=O)c1cc2n(n1)CCCN(Cc1ccc(F)cc1)C2=O	inactive: 6.53%
CSc1ccc(CCNC(=O)c2cc3n(n2)CCCN(Cc2ccc(C)cc2)C3=O)cc1	inactive: 12.9%
CC(=O)c1ccc(NC(=O)CCc2c(C)nn(-c3ccc4nncn4n3)c2C)cc1	inactive: 0.584%
CCOc1ccc(CCNS(=O)(=O)c2c(C)nc3sc(C)cn3c2=O)cc1OCC	inactive: -37.1%
Cc1ccc(NC(=O)CCS(=O)(=O)c2ccc3nc(C)sc3c2)cc1	inactive: 17.2%
CCC1CN(C(=O)N2CCC(C(=O)NCCOC)CC2)c2ccccc2O1 (centres undefined)	inactive: -14%
Cc1ccc(CNC(=O)c2nc(SCc3cccc(C)c3)ncc2Cl)cc1	inactive: 8.97%
Cc1ccc(CNC(=O)c2cn(C)c3ccc(S(=O)(=O)N(C)C4CCCCC4)cc3c2=O)cc1	inactive: -11.8%
CCc1ccc(-n2nc3ccc(NC(=O)c4cc5ccccc5o4)cc3n2)cc1	inactive: -0.3%
CCOc1ccc(-c2cc3c(=O)n(Cc4nc(-c5cccc(OC)c5OC)oc4C)ccn3n2)cc1Cl	inactive: -3.26%
CCC(=O)N1CCc2cc(S(=O)(=O)CCC(=O)N3CCN(c4cccc(C)c4)C(C)C3)ccc21 (centres undefined)	active: 66%
CCN(Cc1ccc(OC)cc1)c1ccc(-c2nc(-c3ccncc3)no2)cc1[N+](=O)[O-]	inactive: -4.18%
COc1ccc(OC)c(S(=O)(=O)N2Cc3ccccc3CC2C(=O)Nc2ccc(C(C)=O)cc2)c1 (centres undefined)	inactive: -17.2%
O=C(NCCc1ccccc1)c1ccc(Cn2c(SCc3ccc(F)cc3)nc3cccnc32)cc1	inactive: -16.3%
Cc1ccccc1Nc1c(-c2ccsc2)nc2c(C)cccn12	inactive: -19.8%
O=C(NCc1cccc(Cl)c1)c1cccn1-c1nnc(N2CCCC2)s1	inactive: -12.4%
Cc1cc(C)c(Cn2c3ccccc3c3cnn(CC(=O)NCCCc4ccccc4)c(=O)c32)c(C)c1	inactive: -27.6%

SMILES	activation
Cc1ccc(CN(Cc2ccco2)c2cnc(S(C)(=O)=O)nc2C(=O)Nc2ccc(Br)cc2)o1	inactive: -20.3%
COc1ccc(OC)c(CCNC(=O)CCn2c(=O)c3cccn3c3cccnc32)c1	inactive: -15.3%
CC(C)Cn1c(=O)c2ccccc2n2c(-c3ccc(Br)cc3)nnc12	inactive: -2.07%
CCCCN(c1ccccc1)c1ncnc2c1cnn2-c1ccc(Cl)cc1	inactive: -14.4%
Cc1ccc(-c2cn3cccc(C)c3n2)cc1NS(=O)(=O)c1ccccc1	inactive: 45.3%
Cc1ccccc1NC(=O)Cn1c(=O)n(Cc2ccc3c(c2)OCO3)c(=O)c2oc3ccccc3c21	inactive: -12.4%
Cc1cc(C)cc(C(=O)Nc2cc(C(F)(F)F)ccc2N2CCN(c3ccccc3)CC2)c1	inactive: 1.87%
O=C(c1ccccc1)N1CCc2cc(CNS(=O)(=O)c3ccccc3Cl)ccc21	inactive: 0.17%
CCOc1cc(C(=O)OCc2cc(=O)n3c(C)csc3n2)cc(OCC)c1OCC	inactive: 0.928%
CC(=O)Nc1ccc(S(=O)(=O)NCC2CCC(C(=O)NCCCOC(C)C)CC2)cc1 (centres undefined)	inactive: -7.22%
Cc1ccc(-c2nn3c(C)nnc3c3ccccc23)cc1S(=O)(=O)NCCO	inactive: -5.63%
Cc1cccc(N(CC(=O)NC(C)c2ccccc2)S(=O)(=O)c2ccccc2)c1C (centres undefined)	inactive: 1.05%
CCCCc1nc(Cl)c(CO)n1Cc1ccc(-c2ccccc2-c2nn[nH]n2)cc1	inactive: -51.2%
O=C(NCC1(c2ccccc2)CCCC1)C(=O)Nc1cccc(C(F)(F)F)c1	inactive: -0.501%
COc1ccc2nc(NS(=O)(=O)c3ccc(C)cc3)c(Nc3cc(Cl)ccc3OC)nc2c1	inactive: 42.1%
CCOc1ccc(CCNC(=O)CSc2cc(=O)n(C)c3ccccc23)cc1OCC	inactive: 10.1%
CCCCC(CC)COC(=O)/C=C/c1ccc(OC)cc1 (centres undefined)	inactive: 11.1%
O=C1CC(c2ccccc2)Cc2[nH]c(=O)c(-c3nc(-c4cccc(Cl)c4)cs3)cc21 (centres undefined)	inactive: -12.9%
COc1ccc(CNC(=O)C(=O)NCC(c2ccc3c(c2)OCO3)N2CCOCC2)cc1 (centres undefined)	inactive: -18.3%
CCOC(=O)Cn1c(=O)oc2cc(S(=O)(=O)NCc3ccc(F)cc3)ccc21	inactive: -9.55%
COC(=O)c1sccc1S(=O)(=O)N1CCN(c2cccc(C)c2C)CC1	inactive: -1.02%
O=C(CSc1n[nH]c(-c2ccccc2)n1)N1CCCCC1	inactive: 7.63%
Cc1ccc(Cl)cc1N1CCN(C(c2ccc(F)cc2)c2nnc(-c3ccccc3)o2)CC1 (centres undefined)	inactive: -20%
CCN(CC)CCc1nc(-c2ccccc2)no1	inactive: 8.27%
Cc1noc(/C=C/N(C)C)c1S(=O)(=O)N1CCCC(C(=O)Nc2cccc(F)c2)C1 (centres undefined)	inactive: -14.1%
CCOc1ccc(CC(=O)NCCc2csc3nc(-c4ccccc4F)nn23)cc1	inactive: 34.6%
CCCCN(C)CCNC(=O)Cn1ncc2c3ccccc3n(CCC)c2c1=O	inactive: -4.98%
